# Experimental data as given in publication PMC9911399, “Two distinct binding modes provide the RNA-binding protein RbFox with extraordinary sequence specificity”.
# Where a chain is given by its changes, count along the chain named. This is one part of the list.
# T1: RBFOX1 RRM RbFoxmut (Fox-RRM*) (Homo sapiens, UniProt Q9NWB1 109-208, R118D;E147R;N151S;E152T)
# T1 sequence: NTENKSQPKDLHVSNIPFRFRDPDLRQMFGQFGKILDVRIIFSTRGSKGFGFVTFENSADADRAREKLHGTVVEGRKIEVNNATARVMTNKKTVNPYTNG
# B1: GACAAUA (DNA:RNA)
# RNA: GGGAGACCGGAAUUCAGAUUGUCCGACAAUAUUAAAUCCCGUCGUAGCCACCA
# DNA 1: CAATCTGAATTCCGGTCTCCC
# DNA 2: TGGTGGCTACGACGGGATT
# B2: GUAAUUC (DNA:RNA)
# RNA: B1 RNA with A26U, C27A, A29U, A31C
# DNA 1: CAATCTGAATTCCGGTCTCCC
# DNA 2: TGGTGGCTACGACGGGATT
# B3: CGUUCUU (DNA:RNA)
# RNA: B1 RNA with G25C, A26G, C27U, A28U, A29C, A31U
# DNA 1: CAATCTGAATTCCGGTCTCCC
# DNA 2: TGGTGGCTACGACGGGATT
# B4: AUUUUGG (DNA:RNA)
# RNA: GGGAGACCGGAAUUCAGAUUGUCCAUUUUGGUUAAAUCCCGUCGUAGCCACCA
# DNA 1: CAATCTGAATTCCGGTCTCCC
# DNA 2: TGGTGGCTACGACGGGATT
# B5: GCUCGUG (DNA:RNA)
# RNA: B4 RNA with A25G, U26C, U28C, U29G, G30U
# DNA 1: CAATCTGAATTCCGGTCTCCC
# DNA 2: TGGTGGCTACGACGGGATT
# B6: GCUCUGA (DNA:RNA)
# RNA: B4 RNA with A25G, U26C, U28C, G31A
# DNA 1: CAATCTGAATTCCGGTCTCCC
# DNA 2: TGGTGGCTACGACGGGATT
# B7: GGAGCCU (DNA:RNA)
# RNA: B1 RNA with A26G, C27A, A28G, A29C, U30C, A31U
# DNA 1: CAATCTGAATTCCGGTCTCCC
# DNA 2: TGGTGGCTACGACGGGATT
# B8: GAUCAAG (DNA:RNA)
# RNA: B1 RNA with C27U, A28C, U30A, A31G
# DNA 1: CAATCTGAATTCCGGTCTCCC
# DNA 2: TGGTGGCTACGACGGGATT
# B9: UAGCGUU (DNA:RNA)
# RNA: B1 RNA with G25U, C27G, A28C, A29G, A31U
# DNA 1: CAATCTGAATTCCGGTCTCCC
# DNA 2: TGGTGGCTACGACGGGATT
# B10: ACACAGC (DNA:RNA)
# RNA: B4 RNA with U26C, U27A, U28C, U29A, G31C
# DNA 1: CAATCTGAATTCCGGTCTCCC
# DNA 2: TGGTGGCTACGACGGGATT
# B11: AUCCCCA (DNA:RNA)
# RNA: B4 RNA with U27C, U28C, U29C, G30C, G31A
# DNA 1: CAATCTGAATTCCGGTCTCCC
# DNA 2: TGGTGGCTACGACGGGATT
# B12: UGAGCGU (DNA:RNA)
# RNA: B4 RNA with A25U, U26G, U27A, U28G, U29C, G31U
# DNA 1: CAATCTGAATTCCGGTCTCCC
# DNA 2: TGGTGGCTACGACGGGATT
# B13: CGUAAUG (DNA:RNA)
# RNA: B1 RNA with G25C, A26G, C27U, A31G
# DNA 1: CAATCTGAATTCCGGTCTCCC
# DNA 2: TGGTGGCTACGACGGGATT
# B14: UAUGUCU (DNA:RNA)
# RNA: B4 RNA with A25U, U26A, U28G, G30C, G31U
# DNA 1: CAATCTGAATTCCGGTCTCCC
# DNA 2: TGGTGGCTACGACGGGATT
# B15: GGUUCGU (DNA:RNA)
# RNA: B4 RNA with A25G, U26G, U29C, G31U
# DNA 1: CAATCTGAATTCCGGTCTCCC
# DNA 2: TGGTGGCTACGACGGGATT
# B16: CCUGUCG (DNA:RNA)
# RNA: B4 RNA with A25C, U26C, U28G, G30C
# DNA 1: CAATCTGAATTCCGGTCTCCC
# DNA 2: TGGTGGCTACGACGGGATT
# B17: AUUAUAU (DNA:RNA)
# RNA: B4 RNA with U28A, G30A, G31U
# DNA 1: CAATCTGAATTCCGGTCTCCC
# DNA 2: TGGTGGCTACGACGGGATT
# B18: AGAGAAA (DNA:RNA)
# RNA: B1 RNA with G25A, A26G, C27A, A28G, U30A
# DNA 1: CAATCTGAATTCCGGTCTCCC
# DNA 2: TGGTGGCTACGACGGGATT
# B19: CGUGGCU (DNA:RNA)
# RNA: B4 RNA with A25C, U26G, U28G, U29G, G30C, G31U
# DNA 1: CAATCTGAATTCCGGTCTCCC
# DNA 2: TGGTGGCTACGACGGGATT
# B20: UUUUAUU (DNA:RNA)
# RNA: B4 RNA with A25U, U29A, G30U, G31U
# DNA 1: CAATCTGAATTCCGGTCTCCC
# DNA 2: TGGTGGCTACGACGGGATT
# Molecular target: T1, RBFOX1 RRM RbFoxmut (Fox-RRM*)
# Experiment: EMSA; HiTS-Eq, 1 nM pool, 10 min; buffer printed only for the single-RNA assays: 10 mM Tris pH 7.5, 150 mM NaCl, 3.4 mM EDTA, 0.001% NP-40, 30 C
# Conditions: tags: His6 N-terminal (pET28a); label: 5' 32P
# In short: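 Relative association constants, normalised to the cognate motif, were derived by comparing read counts of each RNA species with those of the control reaction. The RNA sequenced was the free fraction, separated by 8% native PAGE after a 10 min equilibration in 50 µL of 1 nM 5′-radiolabelled RNA (7 randomized nucleotides) with increasing concentrations of purified wild-type or mutant RbFox RRM.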
row,Binder,binding signal
1,B1,0.0664 KA relative to UGCAUGU
2,B2,0.0904 KA relative to UGCAUGU
3,B3,0.0679 KA relative to UGCAUGU
4,B4,0.0718 KA relative to UGCAUGU
5,B5,0.174 KA relative to UGCAUGU
6,B6,0.0764 KA relative to UGCAUGU
7,B7,0.0778 KA relative to UGCAUGU
8,B8,0.0749 KA relative to UGCAUGU
9,B9,0.0979 KA relative to UGCAUGU
10,B10,0.0623 KA relative to UGCAUGU
11,B11,0.089 KA relative to UGCAUGU
12,B12,0.132 KA relative to UGCAUGU
13,B13,0.157 KA relative to UGCAUGU
14,B14,0.0708 KA relative to UGCAUGU
15,B15,0.29 KA relative to UGCAUGU
16,B16,0.107 KA relative to UGCAUGU
17,B17,0.137 KA relative to UGCAUGU
18,B18,0.0972 KA relative to UGCAUGU
19,B19,0.111 KA relative to UGCAUGU
20,B20,0.113 KA relative to UGCAUGU
